Here are results for 43 compounds from paper PMC4336329 (PLoS ONE, 2015).

Out of some 310,000 compounds screened, about 14,000 (4.5%) showed an effect of 50% or more. Effects have a minus sign here. This is one part of the list.
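Also: peak tail current of the secondary pulse compared with the same well before compound.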

The test deals with human ether-à-go-go-related gene (hERG) potassium channel (human, UniProt Q12809). In words: primary screen, population patch clamp on CHO cells stably expressing hERG.
Chain of human ether-à-go-go-related gene (hERG) potassium channel (Q12809 whole entry, looked up): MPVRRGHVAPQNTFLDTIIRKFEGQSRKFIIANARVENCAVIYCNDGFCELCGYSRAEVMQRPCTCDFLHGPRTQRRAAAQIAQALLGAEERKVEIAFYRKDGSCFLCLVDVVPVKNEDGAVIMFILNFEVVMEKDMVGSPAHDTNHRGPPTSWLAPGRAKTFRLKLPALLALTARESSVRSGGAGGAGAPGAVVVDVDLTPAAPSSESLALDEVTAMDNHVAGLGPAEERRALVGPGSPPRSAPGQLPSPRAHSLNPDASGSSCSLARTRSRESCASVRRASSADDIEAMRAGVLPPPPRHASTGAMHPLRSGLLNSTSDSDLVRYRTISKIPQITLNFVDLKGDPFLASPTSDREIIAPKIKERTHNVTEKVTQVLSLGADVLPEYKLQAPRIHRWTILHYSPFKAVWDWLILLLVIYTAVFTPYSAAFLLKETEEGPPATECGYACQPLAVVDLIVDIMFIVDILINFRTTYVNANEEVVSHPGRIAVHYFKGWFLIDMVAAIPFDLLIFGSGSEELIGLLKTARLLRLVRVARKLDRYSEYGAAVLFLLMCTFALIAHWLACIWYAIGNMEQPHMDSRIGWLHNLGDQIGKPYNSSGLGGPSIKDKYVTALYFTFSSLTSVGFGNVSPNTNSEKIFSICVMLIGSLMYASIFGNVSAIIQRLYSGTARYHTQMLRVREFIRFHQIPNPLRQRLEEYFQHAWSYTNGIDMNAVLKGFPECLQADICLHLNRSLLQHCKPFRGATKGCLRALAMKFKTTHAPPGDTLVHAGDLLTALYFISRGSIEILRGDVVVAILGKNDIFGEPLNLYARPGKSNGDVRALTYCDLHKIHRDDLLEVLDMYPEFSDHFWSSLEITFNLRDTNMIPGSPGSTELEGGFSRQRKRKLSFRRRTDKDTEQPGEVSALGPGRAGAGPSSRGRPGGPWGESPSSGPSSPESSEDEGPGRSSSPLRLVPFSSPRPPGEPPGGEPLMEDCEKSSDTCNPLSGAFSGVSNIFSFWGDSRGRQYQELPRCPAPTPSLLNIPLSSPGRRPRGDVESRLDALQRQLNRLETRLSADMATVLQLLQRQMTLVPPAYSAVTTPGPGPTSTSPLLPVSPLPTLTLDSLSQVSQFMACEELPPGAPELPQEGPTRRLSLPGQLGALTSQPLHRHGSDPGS
As to `CNC(=O)c1ccsc1NC(=O)c1sc2ccccc2c1Cl`, the “hERG current change (%, negative = inhibition) at 10uM” value came to 20.4%.

Regarding `COC(=O)C1=C(C)NC(=S)NC1/C=C/c1ccccc1` (stereo not shown), the “hERG current change (%, negative = inhibition) at 10uM” value is 2.77%.

Consider `COc1cc(CNc2ccc(CNc3ncn[nH]3)cc2)cc(Cl)c1OCc1ccccc1`, for which the “hERG current change (%, negative = inhibition) at 10uM” value came out at 21.2%.

As for `Cc1c(/C=N/O)c2ccccn2c1C=O`, the “hERG current change (%, negative = inhibition) at 10uM” value is recorded as 24.4%.

As for `Cc1[nH]ccc(=O)c1Oc1ncc(C(F)(F)F)cc1Cl`, the “hERG current change (%, negative = inhibition) at 10uM” value was 16.3%.

With `NC(=O)Cn1cc(/C=N\NS(=O)(=O)c2ccc(F)cc2)c2ccccc21`, the “hERG current change (%, negative = inhibition) at 10uM” value is on record as 11.5%.

As to `CC1CCCC(C)N1C(=O)CN1CCN(c2nc(-c3ccc(F)cc3)cs2)CC1` (stereo not shown), the “hERG current change (%, negative = inhibition) at 10uM” value is reported as -38.5%.

Regarding `COc1ccc(C(C)=O)cc1COc1ccccc1[N+](=O)[O-]`, the “hERG current change (%, negative = inhibition) at 10uM” value is listed as 25%.

Take `Cc1ccc(-n2c(SCc3nc4ccccc4[nH]3)nnc2-c2ccncc2)cc1`: the “hERG current change (%, negative = inhibition) at 10uM” value is recorded as -39.5%.

Take `O=C(Nc1cc2c(cc1C(=O)O)OCCCO2)c1ccc(C(F)(F)F)cc1`: the “hERG current change (%, negative = inhibition) at 10uM” value is 40.4%.

As for `Cl.OC1(c2cccnc2)CCN(Cc2nnnn2C2CCCCC2)CC1`, the “hERG current change (%, negative = inhibition) at 10uM” value came to 14.8%.

Consider `O=S(=O)(NCc1ccco1)c1ccccc1Br`, for which the “hERG current change (%, negative = inhibition) at 10uM” value is -0.486%.

With `CC(=O)NS(=O)(=O)c1ccc2c(c1)Cc1cc(S(=O)(=O)NC(C)=O)ccc1-2`, the “hERG current change (%, negative = inhibition) at 10uM” value was 19.8%.

Consider `O=C(Nc1ccc(F)cc1F)c1cc2ncc(CCCl)cn2n1`, for which the “hERG current change (%, negative = inhibition) at 10uM” value is -12.3%.

Regarding `CN(C)CCNC(=O)c1ccc2c(c1)N(Cc1ccc(F)cc1)CCS2`, the “hERG current change (%, negative = inhibition) at 10uM” value is reported as -32.8%.

Regarding `O=C(Nc1ncc(S(=O)(=O)c2ccc([N+](=O)[O-])cc2)s1)c1ccc2ccccc2c1`, the “hERG current change (%, negative = inhibition) at 10uM” value came out at 19%.

As to `Clc1cccc(C2=NOC(c3nnc(-c4ccccc4)o3)C2)c1` (stereo not shown), the “hERG current change (%, negative = inhibition) at 10uM” value came to 4.19%.

As for `O=C(COc1ccc([N+](=O)[O-])cc1)NCC(c1cccs1)N1CCOCC1` (stereo not shown), the “hERG current change (%, negative = inhibition) at 10uM” value is given as -48.2%.

Consider `Cc1cc(/C=C(\C#N)C(=O)NCc2cccs2)c(C)n1-c1ccc([N+](=O)[O-])cc1`, for which the “hERG current change (%, negative = inhibition) at 10uM” value turned out to be 2.97%.

In the case of `CCCc1nc(SCc2ccc(OCC)cc2)n[nH]1`, the “hERG current change (%, negative = inhibition) at 10uM” value is recorded as 14.5%.

In the case of `CCN1C(=O)c2cccc3c(N)ccc(c23)C1=O`, the “hERG current change (%, negative = inhibition) at 10uM” value came out at 18.7%.

Regarding `Cl.Nc1ccccc1Sc1nc2ccccc2[nH]1`, the “hERG current change (%, negative = inhibition) at 10uM” value is listed as -16.3%.

Turning to `CCc1ccc(OCC(=O)Nc2ncc3c(n2)CC(C)(C)CC3=O)cc1`, the “hERG current change (%, negative = inhibition) at 10uM” value is recorded as -13.8%.

Regarding `Cc1nc(CS(=O)(=O)c2ccccn2)sc1C(=O)NNC(=O)c1c(F)cccc1Cl`, the “hERG current change (%, negative = inhibition) at 10uM” value is 8.05%.

Take `COC(c1ccccc1)c1nnc(CCC(=O)NC2CCCCC2)o1` (stereo not shown): the “hERG current change (%, negative = inhibition) at 10uM” value was 16.6%.

As to `Cc1nn(C)c(C)c1NC(=O)CN1CCC(O)(c2ccc3c(c2)OCO3)CC1`, the “hERG current change (%, negative = inhibition) at 10uM” value is -8.66%.

With `O=C(c1ccc(Cn2c(=O)[nH]c3ccccc3c2=O)cc1)N1CCN(c2ccc(F)cc2)CC1`, the “hERG current change (%, negative = inhibition) at 10uM” value is given as -15.5%.

In the case of `CCCOC(=O)C1=C(C)NC2=C(C(=O)CC(C)(C)C2)C1c1cccnc1` (stereo not shown), the “hERG current change (%, negative = inhibition) at 10uM” value is 3.35%.

`Br.CN(/N=C/c1ccncc1)C1=NCCN1`: the “hERG current change (%, negative = inhibition) at 10uM” value was 5.06%.

As for `COc1ccc(CCNC(=O)[C@H](C)N2C(=O)N3CCc4c([nH]c5ccccc45)[C@@]3(C)C2=O)cc1`, the “hERG current change (%, negative = inhibition) at 10uM” value was -19%.

For `CCOc1ccc(NS(=O)(=O)c2cc(Cl)ccc2OC)cc1`, the “hERG current change (%, negative = inhibition) at 10uM” value is given as -10.3%.

Consider `CC1(C)NC(=O)N(CC(=O)N2CCN(c3ccc([N+](=O)[O-])cc3)CC2)C1=O`, for which the “hERG current change (%, negative = inhibition) at 10uM” value is given as -66.1%.

Turning to `Cc1cccc(C)c1OCCCCN1CCNCC1.O=C(O)C(=O)O`, the “hERG current change (%, negative = inhibition) at 10uM” value is listed as 12.6%.

Consider `C[C@H](NC(=O)NC1CCCc2ccccc21)C(=O)O` (stereo partly shown), for which the “hERG current change (%, negative = inhibition) at 10uM” value was found to be 17%.

Regarding `O/N=C/c1cn(-c2ccccc2)nc1-c1ccc2c(c1)OCCO2`, the “hERG current change (%, negative = inhibition) at 10uM” value is -0.701%.

On to `Cc1cc(C)n(-c2nc3ccccc3c(=O)n2OCCOc2ccccc2)n1`, for which the “hERG current change (%, negative = inhibition) at 10uM” value is listed as -1.88%.

With `CC1CCCC(NS(=O)(=O)c2cc(Br)cnc2N)C1C` (stereo not shown), the “hERG current change (%, negative = inhibition) at 10uM” value is given as -8.36%.

Turning to `NC1=NC(c2cn(-c3ccccc3)nc2-c2cccs2)n2c(nc3ccccc32)N1` (stereo not shown), the “hERG current change (%, negative = inhibition) at 10uM” value is given as -1.46%.

Turning to `COc1ccc(CCN(Cc2ccccn2)C(=S)Nc2ccccc2C)cc1OC`, the “hERG current change (%, negative = inhibition) at 10uM” value is -11.3%.

Take `CC/C(=N\NC(=O)Nc1ccccc1)c1c(O)n(Cc2ccccc2)c(=O)[nH]c1=O`: the “hERG current change (%, negative = inhibition) at 10uM” value was found to be 3.1%.

As to `O=C(CSc1nnc(-c2ccccn2)n1Cc1ccco1)c1ccccc1`, the “hERG current change (%, negative = inhibition) at 10uM” value was -42.5%.

As to `CS(=O)(=O)c1nsc2nc(=O)c(/C=C3\C=Nc4ccccc43)c(N)n12`, the “hERG current change (%, negative = inhibition) at 10uM” value came out at 12.4%.

As to `CCn1c(CNC(=O)c2ccccc2F)cc2cc(C)ccc21`, the “hERG current change (%, negative = inhibition) at 10uM” value amounted to 22.2%.
